# Measurements reported in article PMC7819943, “Rice protein-binding microarrays: a tool to detect cis-acting elements near promoter regions in rice”.
# Some of the results follow.
# Target: T1, OsWOX13 (Oryza sativa, UniProt Q5QMM3 1-267)
# T1 sequence: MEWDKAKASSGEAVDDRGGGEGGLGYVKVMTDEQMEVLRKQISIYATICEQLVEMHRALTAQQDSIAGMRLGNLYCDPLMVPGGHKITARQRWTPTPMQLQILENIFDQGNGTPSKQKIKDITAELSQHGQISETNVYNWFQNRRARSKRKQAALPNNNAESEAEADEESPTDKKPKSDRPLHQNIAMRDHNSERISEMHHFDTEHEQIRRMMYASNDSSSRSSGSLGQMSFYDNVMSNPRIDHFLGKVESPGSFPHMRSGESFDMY
# Experiment: protein-binding microarray (RPBM); PBS, 2% BSA, 51.3 ng/ul salmon testes DNA, 50 uM zinc acetate, 200 nM TF, 25 C, 1 h; high values mean tight binding
# Details: protein: recombinant; tags: N-terminal polyhistidine and DsRed monomer fusion (pET32a); label: CyDye5-dUTP incorporated in the synthesized complementary strand; 3' TTTTT single-stranded linker to array surface; dsDNA, one strand shown
# Procedure, shortened: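 In PBS with 2% BSA, salmon testes DNA and 50 µM zinc acetate, 200 nM protein was incubated on a custom Agilent array at 25 °C for 1 h and then washed off. The array had been made double-stranded by primer extension with Cy5-dUTP and blocked with 2% BSA. The proteins were transcription factors fused N-terminally to polyhistidine and DsRed, expressed in E. coli BL21-CodonPlus and purified on Ni–NTA. The binding signal is per-feature fluorescence intensity (arbitrary units) from an Axon 4000B scanner.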
row,Sequence,binding signal
1,GGTCAATAATTGAAGTATATATGTTACACTAATTATAAATCGGAGTCACCTAGTGCAG,27300 fluorescence intensity (a.u.)
2,CACCAATGATCAATTTGTCAATAATCTAGAACCTTCTTCTCGGAGTCACCTAGTGCAG,16000 fluorescence intensity (a.u.)
3,TGTAATTATCAAGCTGTTCATGGGACAACACAAGCTTATACGGAGTCACCTAGTGCAG,5130 fluorescence intensity (a.u.)
4,CTTAATTACTATTCCCTCCGTCATACAATATAAGAGATTTCGGAGTCACCTAGTGCAG,22500 fluorescence intensity (a.u.)
5,ATTTTCTCAATTTATCTCACTCATATAAACTCCAAATTGGCGGAGTCACCTAGTGCAG,6170 fluorescence intensity (a.u.)
6,GATAATTACGTATATGGGTCACTCGCCTTACTCCACGTCGCGGAGTCACCTAGTGCAG,40500 fluorescence intensity (a.u.)
7,ACCAAATCAATCTAATCAATACCTATCGAAAGTTTGCTCACGGAGTCACCTAGTGCAG,21300 fluorescence intensity (a.u.)
8,TTGATTACTTGCATCTTCAGCTGACGCAACATATGCTACACGGAGTCACCTAGTGCAG,4140 fluorescence intensity (a.u.)
9,ATTAATGAACTGTGACATTTCCTTAATTTCATTTTGCTCTCGGAGTCACCTAGTGCAG,23800 fluorescence intensity (a.u.)
10,GATCAATTAATATGGAATTTAAAAGTTCAATTAATATGGACGGAGTCACCTAGTGCAG,8910 fluorescence intensity (a.u.)
11,CCTAATTGCTACATGATTTGACAGTATAATACTACCGTAACGGAGTCACCTAGTGCAG,31400 fluorescence intensity (a.u.)
12,GTGAGTGACGAAATTAGAAATTATTAAAGCATGAGGCTAACGGAGTCACCTAGTGCAG,13300 fluorescence intensity (a.u.)
13,AAGTTGATTACTTAAACTGATTGACAGGGAGGCGGTTGAACGGAGTCACCTAGTGCAG,56600 fluorescence intensity (a.u.)
14,GTTGGTTGATTACATTTTGAATGCGTGGTTGAGATCGAGTCGGAGTCACCTAGTGCAG,25900 fluorescence intensity (a.u.)
15,AAGGCAAATCATATGATAGAATCAGTGGCTAACACTGTGCCGGAGTCACCTAGTGCAG,6580 fluorescence intensity (a.u.)
16,GTGATTTCTGATTCTGTGATATATGAATTGATTCATGTGACGGAGTCACCTAGTGCAG,5190 fluorescence intensity (a.u.)
17,GTTCGTTTTAATTATCGTCTGTTAGAAATAATAGTAATGGCGGAGTCACCTAGTGCAG,6830 fluorescence intensity (a.u.)
18,CTAATTGCACAGATTGCAACTAATTTGCGAGACAAATTTTCGGAGTCACCTAGTGCAG,23900 fluorescence intensity (a.u.)
19,GTTATGTAATTAAAACGTTGTTTTCTTCTAATATATTGTCCGGAGTCACCTAGTGCAG,7150 fluorescence intensity (a.u.)
20,TTGATTGTATTAACACTTGTGGCAATGACCACGTGGGACCCGGAGTCACCTAGTGCAG,16500 fluorescence intensity (a.u.)
21,ATATATAATTACACTAGGATTATAGTGTATTTATATATGTCGGAGTCACCTAGTGCAG,16200 fluorescence intensity (a.u.)

row,Sequence,binding signal
1,AATATGATTAAATGTTGGACACATAGATGCACTTAGAATGCGGAGTCACCTAGTGCAG,16100 fluorescence intensity (a.u.)
2,TCGAGATTATGAACGTTTGGTTGACTGCTAATGGCTAACGCGGAGTCACCTAGTGCAG,6760 fluorescence intensity (a.u.)
3,GAGTATAATTGAAGGAACAAACTGGGGAAGCTGGCTAACCCGGAGTCACCTAGTGCAG,31300 fluorescence intensity (a.u.)
4,AAACCATTGCAAATTAACTCTCCAAATGGTTTCAGAGACGCGGAGTCACCTAGTGCAG,4040 fluorescence intensity (a.u.)
5,TTAATTACTGGTTTTGAATAGGGAATGGGTCCGAACGATGCGGAGTCACCTAGTGCAG,4190 fluorescence intensity (a.u.)
6,TGTGGTTGGATTGATTCTAATATATACCAAATCAATATAACGGAGTCACCTAGTGCAG,12400 fluorescence intensity (a.u.)
7,TAAACTCCTAATTACACACACTGAAATTCGTATAGAAGATCGGAGTCACCTAGTGCAG,6630 fluorescence intensity (a.u.)
8,ACGAATAGTAATTTGTGAATAAAACTTTTATATACGTGTTCGGAGTCACCTAGTGCAG,4930 fluorescence intensity (a.u.)
9,GATGCTAATTAAGTGCATAGTGCCGGATTATGTAAGGAAACGGAGTCACCTAGTGCAG,5820 fluorescence intensity (a.u.)
10,AACCCTTGCCAGGTGATTGGAAGTAACTTACTGAATTATCCGGAGTCACCTAGTGCAG,6220 fluorescence intensity (a.u.)
11,TCTTAAACATCAATTCTAACATGGAAAATACGCATTTTACCGGAGTCACCTAGTGCAG,3180 fluorescence intensity (a.u.)
12,CCTTTCCTCCGCTAATTAATTCGCCCAACTAAACTACTCACGGAGTCACCTAGTGCAG,11700 fluorescence intensity (a.u.)
13,ACTATGATTATTACAAGTAACATATAAATTATTAGTCAGGCGGAGTCACCTAGTGCAG,37700 fluorescence intensity (a.u.)
14,GCAAATAATTAATTATTCCCTATGACTAATGGGTGTTCGACGGAGTCACCTAGTGCAG,47800 fluorescence intensity (a.u.)
15,AAAATTGATTTTGTGATAATAAACGTGTGCTCGTTTCTTCCGGAGTCACCTAGTGCAG,39500 fluorescence intensity (a.u.)
16,TTATTTAATTATTGTATATATATTTAGTGTTCAACTCATTCGGAGTCACCTAGTGCAG,5310 fluorescence intensity (a.u.)
17,CCTTGACAGTATCACTATCCTAGGCATTTGCTTCATCATTCGGAGTCACCTAGTGCAG,8720 fluorescence intensity (a.u.)
18,TAGGAAAATACCATCAATCAAGAAAACAAAATTAACTTTGCGGAGTCACCTAGTGCAG,8520 fluorescence intensity (a.u.)
19,GATTGATGGGCTACCTTGGAAATAAGGTAATTCAGAGTTTCGGAGTCACCTAGTGCAG,5190 fluorescence intensity (a.u.)
20,CGAATAGAAATGATTTGAGGGAGCAAACACATTCTCTTTCCGGAGTCACCTAGTGCAG,3780 fluorescence intensity (a.u.)
21,GAAGAAGAAGAACCTTGATTGAAATCCCTAACCCCAACCACGGAGTCACCTAGTGCAG,23600 fluorescence intensity (a.u.)
